# In the supplement of paper PMC11417369:
# Some of the results follow.
# Tested on: PF3D7_0420300 AP2 domain 1 (GST-tagged)
# Assay: gcPBM binding intensity (ln(normalized median fluorescence intensity)); higher = stronger DNA binding
# In short: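 GST-tagged P. falciparum DNA-binding domains produced in E. coli were incubated for 1 h on an Agilent 4 × 180k array of primer-extended double-stranded 36-bp intergenic genomic probes with negative controls. Binding intensity is the highest Masliner-normalised natural-log median intensity across replicate spots of either probe orientation, with bound protein detected by Alexa488 anti-GST antibody at 488 nm.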
row,Sequence,gcPBM binding intensity (ln)
1,TTTAATTTTTTTAAAACACACAAATATATATATATA [CACACA_site3898],9.1
2,CAAAATAATATATATACACACACACCGATATATATA [CACACA_site8082],10.2
3,GTTAGCATATTAAGTTGTACACAATTATTCTTCAAT [XGTACX_site8324],9.29
4,TGGTATTTTGATGATAAAAGGAAATTTTTTTTATAC [XGTACX_negctrl_site111],8.85
5,AACAAAGAAAATACATGTACAAAAAATATTAACGAA [XGTACX_site287],9.76
6,AATATAATATAATGCACACATAAACAAAAAAAAAAA [CACACA_site783],9.54
7,AATCATATTTAGATTACACACAGTTTAAATATTTTA [CACACA_site1263],9.29
8,TATATATATATATATATATATATATATATAATATTA [XGTACX_negctrl_site558],8.78
9,TATTTAAATGGATGCACACATGCATTAAATAAAATA [CACACA_site3433],9.1
10,TGTAATGTTTACAACACACAAATTATAAATACAAAA [CACACA_site5047],9.41
11,TCGATATATAGACACACACACTTTTAATAATTAAAT [CACACA_site7726],9.7
12,TACAAACAGACATATACACACAAAAAAAAAATAAAA [CACACA_site2562],9.91
13,TTATGCAGATAAAAGAGTACATATTCGTTACATACA [XGTACX_site2849],9.21
14,TATATTTTAAAATTATGTACATATATAGATAAATGT [XGTACX_site1349],9.09
15,ATATAAATATAGTGTGCACACACATAATATATATAT [CACACA_site8713],9.85
16,ATATATATATATAATACACACATCATAAAATATGTA [CACACA_site2518],9.48
17,AAAATAAATTGTGAAGGTACACAAATTATTATGTGG [XGTACX_site4196],9.19
18,TATCATCATGTATGTACACACATACAGATATTATGT [CACACA_site4888],9.48
19,AAATACAAAATTGTTACACACATATTAATTATGACA [CACACA_site476],9.47
20,GGAAATATAAAATCATGTACATATGTATATATAATT [XGTACX_site5491],9.47
21,ATGAATATATATATTTGTACATATGTATATATATAT [XGTACX_site7527],9.19
22,TATATATTTTTTTCATGTACTTATTATATATATATA [XGTACX_site5321],9.34

row,Sequence,gcPBM binding intensity (ln)
1,AGTATAGATGTATACACACACCAAACGTTAAAAAAA [CACACA_site7443],9.66
2,TTTCAAAATTTTTATTTTAAATAAACATTTATAAAA [CACACA_negctrl_site1588],8.59
3,ATTTATTTATTTATATGTACTTAAATGAAAGGAATA [XGTACX_site6024],8.96
4,ATATGGCACATATGTACACACGTATAGATAATATTA [CACACA_site5162],9.42
5,CCGATATAATGGAAAACACACAAAAGATATATATAT [CACACA_site2683],9.73
6,ACATACATTTTTAAATGTACATATATATATATATAT [XGTACX_site6751],9.23
7,AATATTATATGGACGTGTCCACATAAACCTATATAT [XGTACX_site2053],9.19
8,TTAGTAAATACATTTGCACACATTATTTTTTAACAT [CACACA_site5448],9.55
9,TGTAATTGTTTAAAGGGTACATATATCAGATGTCTT [XGTACX_site5877],9.13
10,TGGAAACAATGACACACACACAAAAAAAAAAAAAAA [CACACA_site7494],9.68
11,TTTTGTTTTTGTAGAGTGCATAAAGAAGATATGTAT,9.1
12,AAAAATTAAAATATAACTAATTAATTTGTATTCATT [CACACA_negctrl_site1633],9.09
13,TATAAATACTTAGAAACACACAAAAATATTTTATAA [CACACA_site7259],9.4
14,ATAATAATATTTCTATGTACTTATTTTATGTATTAG [XGTACX_site1747],9.41
15,TTATCTCTACAAAGTGCACACACGTAAAAACATATA [CACACA_site3957],9.44
16,GTAGGGGAAAAAAAAACACACAAAAAACAACAGATC [CACACA_site1187],9.92
17,CATTATGTTGTAAATACACACATACAGATACATACA [CACACA_site4565],9.54
18,TTTTTTGGTTTTCATGCACACAATTTATAAATCTAT [CACACA_site3106],9.61
19,TAAAGGCAAACAAACACACACACATAAATACAGATA [CACACA_site5204],10.2
20,ATATGCGTTTGCAAATGTACATATTATTTATATATA [XGTACX_site7128],9.23
21,ATAATTCTTTTACTGTGTACATATTATCACTTATTT [XGTACX_site2456],9.64
22,AAAAAGAAAAAATATATTCGTCTATTATAAACAATA [CACACA_negctrl_site648],9
